In the antibiotic and cytotoxicity screens of Wong et al. (2023) one finds growth inhibition call data, which are given here for ten compounds.

The other results are listed elsewhere or left out.

This assay has as its system S. aureus RN4220. Nature of the assay: growth inhibition call (relative growth <= 0.2). The following applies: 50 µM.
As for `C[C@@H]1CCCCO[C@@H](CN(C)Cc2ccc(C(F)(F)F)cc2)[C@H](C)CN([C@@H](C)CO)C(=O)c2cc(NC(=O)CCCN(C)C)ccc2O1`, the growth inhibition call was “inactive”.
On to `C[C@@H]1CN([C@@H](C)CO)C(=O)c2cc(NC(=O)c3ccccc3)ccc2O[C@@H](C)CCCCO[C@H]1CN(C)Cc1ccc(C(F)(F)F)cc1`, for which the growth inhibition call was “inactive”.
As for `CCc1cc(Nc2nccc(-c3c(-c4ccc(OC)c(C(=O)Nc5c(F)cccc5F)c4)nc4ccccn34)n2)c(OC)cc1N1CCC(N2CCN(S(C)(=O)=O)CC2)CC1`, the growth inhibition call was “inactive”.
In the case of `N=C(N)NCCN1CCCCCCC1.O=S(=O)(O)O` it was “inactive”; in that of `C[C@H]1CN([C@@H](C)CO)C(=O)c2cc(NC(=O)c3ccncc3)ccc2O[C@H]1CN(C)Cc1ccc(C(=O)O)cc1`, “inactive”; in that of `C[C@@H]1CCCCO[C@H](CN(C)S(=O)(=O)c2ccccc2)[C@@H](C)CN([C@H](C)CO)C(=O)c2cc(NC(=O)Nc3ccc4c(c3)OCO4)ccc2O1`, “inactive”.
As for `C[C@H](CO)N1C[C@H](C)[C@H](CN(C)S(=O)(=O)c2ccc(Cl)cc2)Oc2ccc(NC(=O)Nc3cccc4ccccc34)cc2CC1=O`, the growth inhibition call is “inactive”.
With `COc1ccc(S(=O)(=O)Nc2ccc3c(c2)C(=O)N([C@H](C)CO)C[C@@H](C)[C@H](CN(C)S(=O)(=O)c2cn(C)cn2)OCCCC[C@@H](C)O3)cc1`, the growth inhibition call was “inactive”.
Consider `CN(C)CC#Cc1ccc([C@@H]2[C@@H](CO)N3C(=O)CN(C(=O)CN(C)C)C[C@@H]23)cc1`, for which the growth inhibition call was “inactive”.
In the case of `C[C@H]1CCCCO[C@H](CN(C)C(=O)Nc2ccc3c(c2)OCO3)[C@@H](C)CN([C@@H](C)CO)C(=O)c2cc(NS(=O)(=O)c3cccs3)ccc2O1`, the growth inhibition call was “inactive”.
